Experimental data as given in PubChem BioAssay AID1508649 (National Center for Advancing Translational Sciences (NCATS), 2021).
Out of some 43,000 compounds screened, about 830 (1.9%) were called active. Inconclusive means that the source gave no clear call. Such entries were picked first, then a sample of the others. Rule for the calls: active = clear falling dose curves in both reporters; inconclusive = both reporters move, but less clearly or upward; inactive = either reporter flat; the % is the NLuc reporter signal. Potencies of inconclusive entries are left out as doubtful fits.

Experiment: Cell-based coincidence reporter assay to measure PMP22 gene transcription in S16 Pmp22-F2sN cells - Primary screen
Settings: S16 Pmp22-F2sN Schwann cells (luciferase reporters placed in the Pmp22 gene), FLuc/NLuc coincidence luminescence, 24 h; measured here: NLuc reporter readout, at 57.5 µM (top of the series)
Summary of the method: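 Rat S16 Pmp22-F2sN cells, 500-1,000/well in phenol red-free DMEM + 10% FBS, compound-treated 24 h (37C, 5% CO2). Luminescence: FLuc read, Stop&Glo added, NLuc read.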
Potency is the fitted concentration of half-maximal effect; tags give direction and shape of the fitted curve.

SMILES	Potency
COc1ccccc1C(=O)N(Cc1nc(-c2cccc(C)c2)no1)C(C)C	inconclusive [phenotype inactive, single point]
CCCSc1oc(-c2ccco2)nc1S(=O)(=O)c1ccc(Br)cc1	inconclusive [phenotype inactive, single point]
CCCCN(CC)C(=O)CSc1nc2n[nH]c(C)c2c(=N)n1-c1cccc(C)c1	inconclusive [phenotype inactive, single point]
Cc1cccc(OCC(O)Cn2c(=N)n(CCN3CCCCC3)c3ccccc32)c1 (centres undefined)	inconclusive [phenotype inactive, single point]
Cc1cccc(NC(c2ccccc2C)c2ccc3ccc(C)nc3c2O)n1 (centres undefined)	inconclusive [phenotype inactive, single point]
COc1ccc2nc(NC(=O)c3nc(SCc4ccccc4F)ncc3Cl)sc2c1	inactive
Cc1ccc(Cc2nc3ccccc3nc2SCC(=O)N2CCCc3ccccc32)cc1	inconclusive [phenotype inactive, single point]
COc1cc(C2c3c(-c4ccc(C)cc4)n[nH]c3C(=O)N2c2ccc(F)cc2)ccc1O (centres undefined)	inconclusive [phenotype inactive, partial curve]
CCc1ccccc1NC(=O)C1CCN(C(=O)N2CC(C)Oc3ccc(Cl)cc32)CC1 (centres undefined)	inconclusive [phenotype inactive, single point]
CCOc1ccccc1NC(=O)Cn1c(=O)n(Cc2ccco2)c(=O)c2ccc(C(=O)NC3CCCC3)cc21	inconclusive [phenotype inactive, single point]
N#C/C(=C/c1cn(Cc2ccccc2Cl)c2ccccc12)C(=O)Nc1cccc(Cl)c1	inactive
Cn1c(=O)cc(SCC(=O)N2CCN(c3ccccc3F)CC2)c2cc(Cl)ccc21	inconclusive [phenotype inactive, single point]
Cc1ccc(CSc2nc3ccc(NC(=O)COc4ccc(F)cc4)cc3s2)cc1	inactive
CCOc1ccc(C(=O)NCCn2cc(SCC(=O)Nc3ccccc3)c3ccccc32)cc1	inconclusive [phenotype inactive, single point]
CCOC(=O)c1ccc2c(c1)N(Cc1ccccc1)C(=O)c1ccccc1S2	inconclusive [phenotype inactive, single point]
Cc1ccc(NC(=O)Cn2c(=O)n(Cc3ccc4c(c3)OCO4)c(=O)c3ccccc32)c(C)c1	inconclusive [phenotype inactive, single point]
O=C(NCCN1CCCCC1)c1ccc(Cn2c(SCc3cccc(F)c3)nc3cccnc32)cc1	inconclusive [phenotype inactive, single point]
COc1cc(-c2nc(-c3cccc(Cl)c3)c(-c3ccccc3)[nH]2)cc(OC)c1OC	inconclusive [phenotype inactive, partial curve, poor fit]
CCN(CC)S(=O)(=O)c1ccc(NC(=O)CCc2c(C)nc3cc(-c4ccc(Cl)cc4)nn3c2C)cc1	active: 7.77 µM
CCN(C(=O)CSc1nc2ccccc2n1CC(=O)Nc1ccccc1C)c1ccccc1	inconclusive [phenotype inactive, single point]

SMILES	Potency
COc1ccc(NC(=O)CC2C(=O)N(c3ccc(C)cc3)C(=O)N2C2CCCCC2)cc1 (centres undefined)	inactive
CCOC(=O)c1c(C)[nH]c(CCC(=O)NCCCN2CCN(c3cc(C)ccc3C)CC2)c1C	active: 12.1 µM
CCOc1ccc(CCNC(=O)Cn2nc(CC)n3c(cc4sc(CC)cc43)c2=O)cc1OCC	inconclusive [phenotype inactive, single point]
Cc1ccc(C)c(CN2CCCN(Cc3cc(C)ccc3C)S2(=O)=O)c1	inconclusive [phenotype inactive, single point]
Cc1cc(C)cc(NC(=O)CSc2nncn3c2cc2occc23)c1	inconclusive [phenotype inactive, single point]
CCCC(O)c1nc2ccccc2n1CCCCOc1ccc(OC)cc1 (centres undefined)	inconclusive [phenotype inactive, partial curve, poor fit]
CCn1c2c(c(=O)n3ncc(C(=O)Nc4cccc(Cl)c4C)c13)CN(Cc1ccc(OC)cc1)CC2	inactive
CCOC(=O)c1c(S(=O)(=O)NCC(=O)Nc2cccc(CC)c2)c(C)n(C)c1C	inactive
CCOc1ccc(NC(=O)c2cc(S(=O)(=O)NC3CCCC3)ccc2F)cc1	inconclusive [phenotype inactive, single point]
CC(C)CCNC(=O)CSc1c2c(nc3ccc(Cl)cc13)CCCC2	active: 14.1 µM
Cc1cccc(N2CCN(C(=O)c3c(C)oc4nc(C)nc(N5CCCC5)c34)CC2C)c1 (centres undefined)	inactive
COc1ccc(NC(=O)c2ccc3c(c2)c(C)c(C)n3Cc2ccc(F)cc2)c(OC)c1	inconclusive [phenotype inactive, single point]
O=C(CCc1ccccc1)NCCc1csc(-c2cccc(F)c2)n1	inconclusive [phenotype inactive, single point]
O=C(Nc1ccc(N2CCC(N3CCCCC3)CC2)c(C(=O)O)c1)c1ccccc1	inactive
CCC(C)NC(=O)c1cn(CC)c2ccc(S(=O)(=O)N3CCCCC3)cc2c1=O (centres undefined)	inconclusive [phenotype inactive, single point]
COc1ccc2c(c1)c1c(c(=O)n(-c3cccc(C)c3)c(=O)n1CC(=O)Nc1c(C)cc(C)cc1C)n2C	inconclusive [phenotype inactive, single point]
CCOCCCn1c(=N)c(C(=O)NCc2ccco2)cc2c(=O)n3ccccc3nc21	inconclusive [phenotype inactive, single point]
COc1ccc2nc3sc(C(=O)Nc4cc(Cl)c(OC)cc4OC)cc3cc2c1	inactive
O=C(NCCC1=CCCCC1)c1ccc2c(c1)N(Cc1ccc(F)cc1)C(=O)c1ccccc1S2(=O)=O	inactive
COc1ccc(-c2noc(N3CCC(C(=O)N4CCN(c5ccccc5OC)CC4)CC3)n2)cc1	inconclusive [phenotype inactive, single point]

SMILES	Potency
COCCCNC(=O)NC(CCC(C)C)c1c(-n2cccc2)sc2c1CCN(C)C2 (centres undefined)	inconclusive [phenotype inactive, single point]
Cc1nnc(C)n1-c1ccc(C(=O)Nc2cccc(Br)c2)cc1	inactive
CCc1nc2nc(C)cc(Nc3cc(Cl)ccc3C)n2n1	inconclusive [phenotype inactive, partial curve, poor fit]
COc1ccccc1CNC(=O)c1cccc(N2CCCS2(=O)=O)c1	inconclusive [phenotype inactive, single point]
COc1ccc(C(=O)CSc2nc(C)cc(C)c2C(=O)Nc2ccccc2C)cc1	inconclusive [phenotype inactive, partial curve, poor fit]
CCOC(=O)c1c(C)n(-c2ccccc2)c2ccc(OC(=O)c3ccccc3NC(=O)C(C)C)cc12	inconclusive [phenotype inactive, single point]
COc1cc2c(=O)c(C(=O)c3ccc(C)c(C)c3)cn(Cc3ccccc3F)c2cc1OC	active: 16.8 µM
CCOC(=O)c1ccc(N2C(=O)c3[nH]nc(-c4ccc(C)cc4)c3C2c2ccc(O)c(OCC)c2)cc1 (centres undefined)	active: 12.7 µM
CCc1ccc(CNC(=O)c2c3c(nc4ccccc24)C(=O)N(C2CCCCC2)C3)cc1	inconclusive [phenotype inactive, single point]
COc1cccc(-c2nc(S(=O)(=O)c3ccccc3)c(N3CCCCC3)o2)c1	inconclusive [phenotype inactive, single point]
COc1ccccc1C(=O)Nc1c(C(=O)N(CCN(C)C)Cc2ccco2)oc2ccccc12	inconclusive [phenotype inactive, single point]
CC(=O)c1ccc(N2CCN(S(=O)(=O)c3ccc4c(c3)CC(C)N4C(=O)C3CCC3)CC2)cc1 (centres undefined)	active: 12.8 µM
Cn1nnnc1SCCNCc1ccccc1OCc1ccccc1F	inconclusive [phenotype inactive, partial curve]
Cc1ccc(C2c3c(-c4ccccc4O)n[nH]c3C(=O)N2CCCO)cc1 (centres undefined)	inactive
O=S(=O)(NCCc1csc2nc(-c3ccc(F)cc3)nn12)c1ccc(Br)cc1	inactive
CC(=O)c1cccc(NC(=O)Cn2nc(C(F)(F)F)c3c2CCC3)c1	inconclusive [phenotype inactive, partial curve, poor fit]
COc1ccccc1CNc1nc2c(S(=O)(=O)c3ccccc3)nnn2c2ccc(Cl)cc12	inconclusive [phenotype inactive, single point]
CCN(CC)c1ccc(-n2nc3cc(C)c(NC(=O)c4ccccc4C)cc3n2)c(C)c1	inconclusive [phenotype inactive, single point]
COc1ccc(N2CCN(S(=O)(=O)c3ccc(-c4cnc(C5CC5)o4)cc3)CC2)cc1	inactive
